Hit rate of the full screen: of about 280,000 compounds, about 100 (0.036%) were called active. The shares of active, inactive and inconclusive entries below differ from those in the screen. Calls come from the whole dose curve; as a rule, active = well fitted inhibition curve with a large enough effect in the signal ratio, with a control signal flat (not every such curve was filed as active); inconclusive = small, poorly fitted or top-dose-only effect, or effect the other way, or a change in a side signal; inactive = no such curve, though single readings can be large or run the other way; the % refers to the signal ratio. A potency beside an inconclusive call is a rough fit, not a confirmed value. A note “side channel” means that the fit belongs to a control or component signal, not to the main read-out.
What follows are compounds tested against Muscleblind-like protein 1 (Homo sapiens) (UniProt Q9NR56) (assay: qHTS Assay for Inhibitors of MBNL1-poly(CUG) RNA binding). Details: TR-FRET MBNL1-His/biotin-(CUG)12 binding, 665/545 ratio; activity change, negative = inhibition: at 57.5 µM (top of the series).
Chain of UniProt Q9NR56 (Q9NR56 whole entry, looked up): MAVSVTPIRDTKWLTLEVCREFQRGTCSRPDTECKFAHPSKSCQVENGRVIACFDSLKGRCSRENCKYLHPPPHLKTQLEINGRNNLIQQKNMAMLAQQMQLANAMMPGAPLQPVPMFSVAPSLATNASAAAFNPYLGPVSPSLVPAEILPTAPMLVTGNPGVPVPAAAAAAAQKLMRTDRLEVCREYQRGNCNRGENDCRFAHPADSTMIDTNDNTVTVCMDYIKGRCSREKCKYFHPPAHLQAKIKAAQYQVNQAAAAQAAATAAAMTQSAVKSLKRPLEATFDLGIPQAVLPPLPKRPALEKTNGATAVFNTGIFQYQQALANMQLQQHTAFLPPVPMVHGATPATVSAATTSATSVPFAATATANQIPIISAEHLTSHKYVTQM
In short: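 Compounds (final 92 nM to 58 uM) are added to His-tagged MBNL1 and biotin-(CUG)12, then terbium anti-His antibody and streptavidin-XL665 (5 nM final). After 60 min at room temperature, the 665/545 nm ratio is read.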
In the case of `N#CCCN(CCN1CCCC1)S(=O)(=O)c1ccc(-c2ccc([N+](=O)[O-])cc2)cc1`, the Potency is reported as inconclusive: 1.41 µM [quencher, side channel, full curve, poor fit]. For `Cn1ncc(Cl)c1C(=O)N/N=C/c1ccccn1`, the Potency was inconclusive: 35.5 µM [quencher, side channel, single point]. In the case of `CCCCNC(=O)CSc1nc2ccccc2n1S(=O)(=O)c1ccc(Br)cc1`, the Potency is reported as inconclusive: 79.4 µM [inhibitor, partial curve]. With `O=C(Cc1ccc(Br)c2ccccc12)N/N=C/c1ccccn1` the “activity change, negative = inhibition” value was inactive: 23.9%. In the case of `Cc1ccc(-c2cc(C(=O)NC3=NCCS3)c3cc(Br)ccc3n2)o1`, the Potency is reported as inconclusive: 10 µM [quencher, side channel, partial curve]. For `NSc1nc(N)c2nc(-c3ccccc3)c(-c3ccccc3)nc2n1`, the Potency was inconclusive: 11.2 µM [quencher, side channel, partial curve]. `Cc1cccc(NC(=O)Cc2noc3ccccc23)c1` was tested, and the Potency was inconclusive: 35.5 µM [inhibitor, single point]. For `COc1ccc(/C=N/NC(=O)c2c(-c3ccccc3)noc2C)cc1[N+](=O)[O-]`, the Potency was inconclusive: 28.2 µM [quencher, side channel, partial curve]. For `COCc1ccc(C(=O)N2CCCC(CNC(=O)c3ccc(F)cc3)C2)o1` (configuration not stated), the Potency was inconclusive: 11.2 µM [quencher, side channel, full curve]. With `CCOC(=O)c1cnc2c(Cl)cc(Cl)cc2c1NCCOCCO` the Potency was inconclusive: 10 µM [quencher, side channel, partial curve]. For `CCOC(=O)C1=C(Cc2ccc(F)cc2)C(=O)c2ccccc2C1=O`, the Potency was inconclusive: 31.6 µM [quencher, side channel, single point]. In the case of `Cc1ccc(/C=N/NC(=O)c2nnn(-c3nonc3N)c2C(C)C)o1`, the Potency is reported as inconclusive: 14.1 µM [quencher, side channel, partial curve]. In the case of `CC1(C)Cc2cccc(OCC(=O)N3CCN(c4ccc([N+](=O)[O-])cc4)CC3)c2O1`, the Potency is reported as inconclusive: 14.1 µM [quencher, side channel, partial curve]. In the case of `COc1ccc(-c2cc(C(F)(F)F)n3nc(C(=O)N4CCCCC4)cc3n2)cc1`, the Potency is reported as inconclusive: 14.1 µM [quencher, side channel, partial curve]. `Cc1cccc(NC(=O)c2cccc3c2-c2ccccc2C3=O)n1` was tested, and the Potency was inconclusive: 6.31 µM [quencher, side channel, partial curve]. For `CNC(=O)COC(=O)/C=C/c1cccc(F)c1`, the “activity change, negative = inhibition” value was inactive: 2.81%. `COc1ccc2[nH]c(=O)c(CN(CCO)S(=O)(=O)c3c(C)ccc4nsnc34)cc2c1` was tested, and the Potency was inconclusive: 11.2 µM [quencher, side channel, partial curve]. With `CN(CCOc1ccc(Br)cc1)CC(O)c1ccccc1` (configuration not stated) the “activity change, negative = inhibition” value was inactive: -12.4%. For `Nc1[nH]n(-c2ccccc2)c(=O)c1N=Nc1ccc2c(c1)OCCO2`, the Potency was inconclusive: 20 µM [quencher, partial curve]. For `Cc1ccc(-c2ccc(/C=N/NC(=O)CN3CCCC3)o2)cc1Cl`, the Potency was inconclusive: 17.8 µM [quencher, side channel, partial curve]. With `CCOC(=O)N1CCN(c2cc(N)c([N+](=O)[O-])cc2F)CC1` the Potency was inconclusive: 20 µM [quencher, side channel, partial curve]. `CC(=O)/C=N/Nc1ccccc1` was tested, and the Potency was inconclusive: 22.4 µM [quencher, side channel, partial curve]. For `O=[N+]([O-])c1ccc(Cl)cc1NCC1CCCO1` (configuration not stated), the Potency was inconclusive: 17.8 µM [quencher, side channel, partial curve]. With `O=C1/C(=C/c2cccnc2)CC/C1=C\c1cccnc1` the “activity change, negative = inhibition” value was inactive: -5.42%. `N#CC1=C2SCN(Cc3ccccc3)CN2C(=O)CC1c1ccccc1F` (configuration not stated) was tested, and the “activity change, negative = inhibition” value was inactive: 3.33%. With `O=C(Nc1nc(-c2ccccn2)cs1)c1ccc2c(c1)OCCO2` the “activity change, negative = inhibition” value was inactive: -2.84%. For `CC(CNC(=O)CC(C)(C)C)NC(=O)CC(C)(C)C` (configuration not stated), the Potency was inconclusive: 31.6 µM [inhibitor, single point]. For `O=C(c1cnn(C(=O)c2ccccc2)c1)c1ccccc1O`, the “activity change, negative = inhibition” value was inactive: -11.4%. For `O=[N+]([O-])c1ccc2nonc2c1Nc1ccccc1`, the Potency was inconclusive: 2 µM [quencher, side channel, full curve]. With `Nc1ncncc1-c1ccc([N+](=O)[O-])cc1` the Potency was inconclusive: 14.1 µM [quencher, side channel, partial curve]. With `CCOC(=O)c1ccc(N2C(=O)C(O)=C(C(C)=O)C2c2ccccn2)cc1` (configuration not stated) the Potency was inconclusive: 28.2 µM [quencher, side channel, single point]. With `Cc1ccc(/C=C/C(=O)O)cc1S(=O)(=O)NCCO` the Potency was inconclusive: 3.55 µM [quencher, side channel, single point]. In the case of `O=C(O)c1ccc(NS(=O)(=O)c2ccc3c(c2)C(=O)c2cc(S(=O)(=O)Nc4ccc(C(=O)O)cc4)ccc2-3)cc1`, the Potency is reported as inconclusive: 39.8 µM [quencher, single point]. `CC1(C)OC(c2ccccc2)=C/C(=C\C=N\NC(=O)c2ccncc2)O1` was tested, and the Potency was inconclusive: 28.2 µM [quencher, side channel, partial curve]. With `NS(=O)(=O)c1cccnc1Nc1c(Cl)cccc1Cl` the “activity change, negative = inhibition” value was inactive: 4.77%. With `COc1ccc(OCCNC(=O)c2ccccc2OCC(=O)Nc2ccc(NC(C)=O)cc2)cc1` the Potency was inconclusive: 2.82 µM [fluorescent, side channel, partial curve]. In the case of `COC1=C(OC)C(=O)c2ccccc2C1=O`, the Potency is reported as inconclusive: 12.6 µM [quencher, side channel, partial curve]. For `Cc1cccc(OCCCn2c(CCNC(=O)C(C)C)nc3ccccc32)c1`, the Potency was inconclusive: 8.91 µM [quencher, side channel, single point]. With `Cc1ccc(NC(=O)CCNS(=O)(=O)c2cccc3nsnc23)cc1F` the Potency was inconclusive: 22.4 µM [quencher, partial curve]. For `COc1ccccc1N1CCN(CCCn2c(=S)[nH]c3ccccc3c2=O)CC1`, the Potency was inconclusive: 63.1 µM [inhibitor, partial curve]. `CCOC(=O)Cc1csc(NC(=O)CN2CCCCC2)n1` was tested, and the “activity change, negative = inhibition” value was inactive: 0.872%. `Cc1ccc(NC(=O)c2ccc([N+](=O)[O-])o2)cc1S(=O)(=O)N1CCOCC1` was tested, and the Potency was inconclusive: 39.8 µM [quencher, single point]. For `COc1ccccc1-c1cc(C(=O)N/N=C/c2ccoc2)c2ccccc2n1`, the “activity change, negative = inhibition” value was inactive: 13.3%. For `O=C(NCc1ccccc1)/C(=C/c1cccc([N+](=O)[O-])c1)NC(=O)c1ccco1`, the Potency was inconclusive: 14.1 µM [quencher, side channel, partial curve]. In the case of `NC(=O)c1ccc(Nc2ccc3c(c2)CCC3)c([N+](=O)[O-])c1`, the Potency is reported as inconclusive: 1.12 µM [quencher, side channel, full curve]. In the case of `Cc1ccc(C(=O)N2CCN(c3ccccc3)CC2)cc1S(=O)(=O)N1CCCC1`, the “activity change, negative = inhibition” value is reported as inactive: -1.6%. With `CCCNC(=O)c1cc2nc(-c3ccccc3)cc(C(F)(F)F)n2n1` the Potency was inconclusive: 0.794 µM [quencher, side channel, single point]. In the case of `O=C(NCC(O)c1ccc([N+](=O)[O-])cc1)C(c1ccccc1)c1ccccc1` (configuration not stated), the Potency is reported as inconclusive: 28.2 µM [quencher, side channel, single point]. In the case of `CC1(OC(=O)CCc2ccccc2)C(=O)C=C2C=C(c3ccc(C#N)cc3)N(C3CC3)C=C2C1=O` (configuration not stated), the Potency is reported as inconclusive: 12.6 µM [quencher, side channel, partial curve]. With `Cc1ccc2occ(/C=C/C(=O)c3ccccc3O)c(=O)c2c1` the “activity change, negative = inhibition” value was inactive: 2.15%. `CCCCn1cnc2c(cnn2-c2ccc(Cl)cc2)c1=O` was tested, and the Potency was inconclusive: 50.1 µM [inhibitor, single point]. For `CCCCC1=CC2=C(c3ccco3)C(=O)C(C)(OC(=O)c3ccc(OC)cc3)C(=O)C2=CN1C1CC1` (configuration not stated), the Potency was inconclusive: 28.2 µM [quencher, side channel, partial curve]. In the case of `Cc1ncc(CN2CCN(CCc3ccccc3)C(CCO)C2)s1` (configuration not stated), the “activity change, negative = inhibition” value is reported as inactive: -7.3%. In the case of `O=C(Cn1cnc2ccccc2c1=O)c1ccccc1`, the Potency is reported as inconclusive: 8.91 µM [quencher, side channel, single point]. In the case of `Cc1nc2ccc(N)cc2c(=O)n1Cc1ccc(Cl)cc1`, the “activity change, negative = inhibition” value is reported as inactive: -8.21%. With `COc1ccc(CNS(=O)(=O)c2ccc(-c3ccc(=O)[nH]n3)o2)cc1` the Potency was inconclusive: 31.6 µM [quencher, side channel, partial curve]. `N/C(=N\OC(=O)CCC1CCCCC1)c1ccc([N+](=O)[O-])cc1` was tested, and the Potency was inconclusive: 31.6 µM [quencher, side channel, single point]. With `Cc1[nH]n(-c2ccc([N+](=O)[O-])cc2)c(=O)c1C=NCCN1CCN(C(=O)c2ccccc2F)CC1` the Potency was inconclusive: 3.16 µM [quencher, side channel, full curve]. In the case of `Cc1ccc(-n2nnc3ccccc3c2=O)cc1C`, the Potency is reported as inconclusive: 44.7 µM [quencher, side channel, partial curve]. In the case of `COc1cccc(Nc2c3c(nc4c(-c5ccccc5)c(C)nn24)CCC3)c1`, the “activity change, negative = inhibition” value is reported as inactive: -2.79%. In the case of `CCOc1cc(/C=N/NC(=O)c2ccc3c(c2)OCCO3)cc(Br)c1O`, the Potency is reported as inconclusive: 28.2 µM [quencher, side channel, single point]. For `CC(=O)Oc1ccccc1C1C[C@]2(C)CC(=O)NC2N1C(C)=O` (some centres not stated), the “activity change, negative = inhibition” value was inactive: -3.19%.

From PubChem BioAssay AID2675 (National Center for Advancing Translational Sciences (NCATS), 2010)
% is set by controls: 0 for no effect and ±100 for the full control effect; potency is the fitted concentration of half-maximal effect; tags give direction and shape of the fitted curve or compound fluorescence and quenching.
